These are yes or no findings as the source states them, for the method shown. Binding seen in cells or lysates may run through a third protein. Some binding calls cover weakened binding; strength is not graded here. For part of these data: Tags and fused reporters may be left off the sequences shown.
Assays:
[1] = biological target: Exogenous HIF-1α (HA-HIF-1α, wild type) (UniProt Q16665); assay: co-IP; HEK293 lysates (passive-lysis buffer, gentle sonication), antibody with protein A sepharose beads, immunoblot; normoxia, many panels with MG132; some panels with co-expressed PLD1, PLD1-PH, PHD2 or VHL or with DFX; for PLD1-PH under normoxia and hypoxia
[2] = biological target: HA-HIF-1α-PPAA (P402A/P564A) (UniProt Q16665); assay: as above
[3] = biological target: HIF-1α (source not stated for the experiment) (UniProt Q16665); assay: as above
[4] = biological target: HIF-1α-ODD (oxygen dependent degradation domain, 401-603 residues) (UniProt Q16665); assay: as above
[5] = biological target: Endogenous HIF-1α (human (endogenous in HEK293)) (UniProt Q16665); assay: as above
[6] = biological target: PHD2 (HIF prolyl hydroxylase 2), transfected (UniProt Q9GZT9); assay: as above
[7] = biological target: GST-HIF-1α-N-terminal domain (1-401 residues) (UniProt Q16665); assay: as above
[8] = biological target: HIF-1α (source not stated for the experiment) (UniProt Q16665); assay: co-IP; HEK293 cells cultured under hypoxic conditions (1% O2) before immunoprecipitation
[9] = biological target: PHD2 (HIF prolyl hydroxylase 2), transfected (UniProt Q9GZT9); assay: as above
[10] = biological target: In vitro-translated HA-PHD2 (UniProt Q9GZT9); assay: co-IP; in vitro binding assay: IP of in vitro-translated HA-PHD2 and in vitro-translated PLD1
[11] = biological target: Endogenous PHD2 (human (endogenous in HEK293)) (UniProt Q9GZT9); assay: co-IP; HEK293 lysates (passive-lysis buffer, gentle sonication), antibody with protein A sepharose beads, immunoblot; normoxia, many panels with MG132; some panels with co-expressed PLD1, PLD1-PH, PHD2 or VHL or with DFX; for PLD1-PH under normoxia and hypoxia
[12] = biological target: von Hippel-Lindau protein (HA-VHL), wild type (UniProt P40337); assay: as above

Chains of the proteins cited; added tags and fusions are not shown. Lines headed by an entry give the natural chain unless they say otherwise; changes in a name come on top. Residues count along the entry.
UniProt Q16665: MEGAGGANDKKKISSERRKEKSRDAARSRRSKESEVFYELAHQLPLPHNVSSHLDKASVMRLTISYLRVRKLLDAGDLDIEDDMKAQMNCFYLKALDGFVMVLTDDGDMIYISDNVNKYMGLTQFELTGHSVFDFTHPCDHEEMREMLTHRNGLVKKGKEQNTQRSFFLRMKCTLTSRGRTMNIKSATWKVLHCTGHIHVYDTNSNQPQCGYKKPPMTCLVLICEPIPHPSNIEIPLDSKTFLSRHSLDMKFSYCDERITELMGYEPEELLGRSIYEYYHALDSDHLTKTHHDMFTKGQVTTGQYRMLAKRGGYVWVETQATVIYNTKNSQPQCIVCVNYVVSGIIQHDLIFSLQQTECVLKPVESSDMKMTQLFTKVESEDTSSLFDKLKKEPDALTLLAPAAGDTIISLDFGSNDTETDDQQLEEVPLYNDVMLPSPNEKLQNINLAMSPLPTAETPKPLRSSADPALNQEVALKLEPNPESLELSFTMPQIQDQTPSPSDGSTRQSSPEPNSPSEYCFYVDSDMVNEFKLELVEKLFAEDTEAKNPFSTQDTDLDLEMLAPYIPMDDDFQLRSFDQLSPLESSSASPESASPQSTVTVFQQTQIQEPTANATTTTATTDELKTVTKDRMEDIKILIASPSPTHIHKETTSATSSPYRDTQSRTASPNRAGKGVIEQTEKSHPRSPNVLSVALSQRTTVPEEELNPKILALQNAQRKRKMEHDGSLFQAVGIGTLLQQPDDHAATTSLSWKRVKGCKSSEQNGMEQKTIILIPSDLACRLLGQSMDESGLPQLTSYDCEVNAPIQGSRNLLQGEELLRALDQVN
GST-HIF-1α-N-terminal domain (1-401 residues): residues 1-401 of Q16665
HIF-1α-ODD (oxygen dependent degradation domain, 401-603 residues): residues 401-603 of Q16665
UniProt Q9GZT9: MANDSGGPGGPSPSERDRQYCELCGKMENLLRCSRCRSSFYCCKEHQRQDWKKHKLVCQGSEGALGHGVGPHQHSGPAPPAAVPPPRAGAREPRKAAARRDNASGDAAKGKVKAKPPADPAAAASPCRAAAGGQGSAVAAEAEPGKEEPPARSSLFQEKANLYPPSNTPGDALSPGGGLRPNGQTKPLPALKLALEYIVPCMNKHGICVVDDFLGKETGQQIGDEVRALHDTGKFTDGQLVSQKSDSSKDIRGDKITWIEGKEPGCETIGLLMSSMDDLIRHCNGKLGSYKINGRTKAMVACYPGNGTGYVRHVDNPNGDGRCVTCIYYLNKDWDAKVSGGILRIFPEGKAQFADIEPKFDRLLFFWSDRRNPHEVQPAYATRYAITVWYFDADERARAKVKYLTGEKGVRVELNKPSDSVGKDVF
UniProt P40337: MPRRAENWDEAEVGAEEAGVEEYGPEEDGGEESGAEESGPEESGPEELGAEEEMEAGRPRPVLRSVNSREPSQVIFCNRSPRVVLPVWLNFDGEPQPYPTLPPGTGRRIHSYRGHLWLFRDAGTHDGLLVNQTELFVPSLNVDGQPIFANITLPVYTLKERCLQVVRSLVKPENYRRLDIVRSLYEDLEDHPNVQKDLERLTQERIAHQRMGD

B1: Phospholipase D1 (PLD1), wild type (enzyme, UniProt Q13393 1-1074)
chain: MSLKNEPRVNTSALQKIAADMSNIIENLDTRELHFEGEEVDYDVSPSDPKIQEVYIPFSAIYNTQGFKEPNIQTYLSGCPIKAQVLEVERFTSTTRVPSINLYTIELTHGEFKWQVKRKFKHFQEFHRELLKYKAFIRIPIPTRRHTFRRQNVREEPREMPSLPRSSENMIREEQFLGRRKQLEDYLTKILKMPMYRNYHATTEFLDISQLSFIHDLGPKGIEGMIMKRSGGHRIPGLNCCGQGRACYRWSKRWLIVKDSFLLYMKPDSGAIAFVLLVDKEFKIKVGKKETETKYGIRIDNLSRTLILKCNSYRHARWWGGAIEEFIQKHGTNFLKDHRFGSYAAIQENALAKWYVNAKGYFEDVANAMEEANEEIFITDWWLSPEIFLKRPVVEGNRWRLDCILKRKAQQGVRIFIMLYKEVELALGINSEYTKRTLMRLHPNIKVMRHPDHVSSTVYLWAHHEKLVIIDQSVAFVGGIDLAYGRWDDNEHRLTDVGSVKRVTSGPSLGSLPPAAMESMESLRLKDKNEPVQNLPIQKSIDDVDSKLKGIGKPRKFSKFSLYKQLHRHHLHDADSISSIDSTSSYFNHYRSHHNLIHGLKPHFKLFHPSSESEQGLTRPHADTGSIRSLQTGVGELHGETRFWHGKDYCNFVFKDWVQLDKPFADFIDRYSTPRMPWHDIASAVHGKAARDVARHFIQRWNFTKIMKSKYRSLSYPFLLPKSQTTAHELRYQVPGSVHANVQLLRSAADWSAGIKYHEESIHAAYVHVIENSRHYIYIENQFFISCADDKVVFNKIGDAIAQRILKAHRENQKYRVYVVIPLLPGFEGDISTGGGNALQAIMHFNYRTMCRGENSILGQLKAELGNQWINYISFCGLRTHAELEGNLVTELIYVHSKLLIADDNTVIIGSANINDRSMLGKRDSEMAVIVQDTETVPSVMDGKEYQAGRFARGLRLQCFRVVLGYLDDPSEDIQDPVSDKFFKEVWVSTAARNATIYDKVFRCLPNDEVHNLIQLRDFINKPVLAKEDPIRAEEELKKIRGFLVQFPFYFLSEESLLPSVGTKEAIVPMEVWT
[1]
  binding: binds
[2]
  binding: binds
[3]
  binding: binds
[4]
  binding: no binding
[5]
  binding: binds
[6]
  binding: binds
[7]
  binding: binds
[8]
  binding: no binding (condition: under hypoxia (1% O2))
[9]
  binding: no binding (condition: under hypoxia (1% O2))

B2: In vitro-translated PLD1 (enzyme, UniProt Q13393 1-1074)
chain: MSLKNEPRVNTSALQKIAADMSNIIENLDTRELHFEGEEVDYDVSPSDPKIQEVYIPFSAIYNTQGFKEPNIQTYLSGCPIKAQVLEVERFTSTTRVPSINLYTIELTHGEFKWQVKRKFKHFQEFHRELLKYKAFIRIPIPTRRHTFRRQNVREEPREMPSLPRSSENMIREEQFLGRRKQLEDYLTKILKMPMYRNYHATTEFLDISQLSFIHDLGPKGIEGMIMKRSGGHRIPGLNCCGQGRACYRWSKRWLIVKDSFLLYMKPDSGAIAFVLLVDKEFKIKVGKKETETKYGIRIDNLSRTLILKCNSYRHARWWGGAIEEFIQKHGTNFLKDHRFGSYAAIQENALAKWYVNAKGYFEDVANAMEEANEEIFITDWWLSPEIFLKRPVVEGNRWRLDCILKRKAQQGVRIFIMLYKEVELALGINSEYTKRTLMRLHPNIKVMRHPDHVSSTVYLWAHHEKLVIIDQSVAFVGGIDLAYGRWDDNEHRLTDVGSVKRVTSGPSLGSLPPAAMESMESLRLKDKNEPVQNLPIQKSIDDVDSKLKGIGKPRKFSKFSLYKQLHRHHLHDADSISSIDSTSSYFNHYRSHHNLIHGLKPHFKLFHPSSESEQGLTRPHADTGSIRSLQTGVGELHGETRFWHGKDYCNFVFKDWVQLDKPFADFIDRYSTPRMPWHDIASAVHGKAARDVARHFIQRWNFTKIMKSKYRSLSYPFLLPKSQTTAHELRYQVPGSVHANVQLLRSAADWSAGIKYHEESIHAAYVHVIENSRHYIYIENQFFISCADDKVVFNKIGDAIAQRILKAHRENQKYRVYVVIPLLPGFEGDISTGGGNALQAIMHFNYRTMCRGENSILGQLKAELGNQWINYISFCGLRTHAELEGNLVTELIYVHSKLLIADDNTVIIGSANINDRSMLGKRDSEMAVIVQDTETVPSVMDGKEYQAGRFARGLRLQCFRVVLGYLDDPSEDIQDPVSDKFFKEVWVSTAARNATIYDKVFRCLPNDEVHNLIQLRDFINKPVLAKEDPIRAEEELKKIRGFLVQFPFYFLSEESLLPSVGTKEAIVPMEVWT
[10]
  binding: binds

B3: Endogenous PLD1 (enzyme, UniProt Q13393 1-1074)
chain: MSLKNEPRVNTSALQKIAADMSNIIENLDTRELHFEGEEVDYDVSPSDPKIQEVYIPFSAIYNTQGFKEPNIQTYLSGCPIKAQVLEVERFTSTTRVPSINLYTIELTHGEFKWQVKRKFKHFQEFHRELLKYKAFIRIPIPTRRHTFRRQNVREEPREMPSLPRSSENMIREEQFLGRRKQLEDYLTKILKMPMYRNYHATTEFLDISQLSFIHDLGPKGIEGMIMKRSGGHRIPGLNCCGQGRACYRWSKRWLIVKDSFLLYMKPDSGAIAFVLLVDKEFKIKVGKKETETKYGIRIDNLSRTLILKCNSYRHARWWGGAIEEFIQKHGTNFLKDHRFGSYAAIQENALAKWYVNAKGYFEDVANAMEEANEEIFITDWWLSPEIFLKRPVVEGNRWRLDCILKRKAQQGVRIFIMLYKEVELALGINSEYTKRTLMRLHPNIKVMRHPDHVSSTVYLWAHHEKLVIIDQSVAFVGGIDLAYGRWDDNEHRLTDVGSVKRVTSGPSLGSLPPAAMESMESLRLKDKNEPVQNLPIQKSIDDVDSKLKGIGKPRKFSKFSLYKQLHRHHLHDADSISSIDSTSSYFNHYRSHHNLIHGLKPHFKLFHPSSESEQGLTRPHADTGSIRSLQTGVGELHGETRFWHGKDYCNFVFKDWVQLDKPFADFIDRYSTPRMPWHDIASAVHGKAARDVARHFIQRWNFTKIMKSKYRSLSYPFLLPKSQTTAHELRYQVPGSVHANVQLLRSAADWSAGIKYHEESIHAAYVHVIENSRHYIYIENQFFISCADDKVVFNKIGDAIAQRILKAHRENQKYRVYVVIPLLPGFEGDISTGGGNALQAIMHFNYRTMCRGENSILGQLKAELGNQWINYISFCGLRTHAELEGNLVTELIYVHSKLLIADDNTVIIGSANINDRSMLGKRDSEMAVIVQDTETVPSVMDGKEYQAGRFARGLRLQCFRVVLGYLDDPSEDIQDPVSDKFFKEVWVSTAARNATIYDKVFRCLPNDEVHNLIQLRDFINKPVLAKEDPIRAEEELKKIRGFLVQFPFYFLSEESLLPSVGTKEAIVPMEVWT
[11]
  binding: binds

B4: GFP-PH domain of dynamin 2 (DNM2) (domain or fragment, UniProt P50570 519-625)
chain: LVIRRGWLTINNISLMKGGSKEYWFVLTAESLSWYKDEEEKEKKYMLPLDNLKIRDVEKGFMSNKHVFAIFNTEQRNVYKDLRQIELACDSQEDVDSWKASFLRAGV
[3]
  binding: no binding

B5: GFP-PLD1-PH (domain or fragment, UniProt Q13393 219-328)
chain: PKGIEGMIMKRSGGHRIPGLNCCGQGRACYRWSKRWLIVKDSFLLYMKPDSGAIAFVLLVDKEFKIKVGKKETETKYGIRIDNLSRTLILKCNSYRHARWWGGAIEEFIQ
[3]
  binding: binds
[12]
  binding: binds
[6]
  binding: binds

B6: GFP-PH domain of phospholipase C-δ1 (PLCδ1) (domain or fragment, UniProt P51178 21-130)
chain: ALLKGSQLLKVKSSSWRRERFYKLQEDCKTIWQESRKVMRTPESQLFSIEDIQEVRMGHRTEGLEKFARDVPEDRCFSIVFKDQRNTLDLIAPSPADAQHWVLGLHKIIH
[3]
  binding: no binding

B7: GFP-PH domain of dynamin 1 (DNM1) (domain or fragment, UniProt Q05193 519-625)
chain: LVIRKGWLTINNIGIMKGGSKEYWFVLTAENLSWYKDDEEKEKKYMLSVDNLKLRDVEKGFMSSKHIFALFNTEQRNVYKDYRQLELACETQEEVDSWKASFLRAGV
[3]
  binding: no binding

B8: GFP-PH domain of phospholipase C-δ4 (PLCδ4) (domain or fragment, UniProt Q9BRC7 16-124)
chain: LLMQEGMPMRKVRSKSWKKLRYFRLQNDGMTVWHARQARGSAKPSFSISDVETIRNGHDSELLRSLAEELPLEQGFTIVFHGRRSNLDLMANSVEEAQIWMRGLQLLVD
[3]
  binding: no binding

Reference: publication PMC4323006
